# Test results reported in PubChem BioAssay AID2451 (National Center for Advancing Translational Sciences (NCATS), 2010).
# In all, about 290,000 compounds went through this assay and about 2,100 (0.72%) were called active. The shares of active, inactive and inconclusive entries below differ from those in the screen. Calls come from the whole dose curve; as a rule, active = well fitted inhibition curve with a large enough effect; inconclusive = small, poorly fitted or top-dose-only effect, or effect the other way; inactive = flat fitted curve, though single readings scatter. A potency beside an inconclusive call is a rough fit, not a confirmed value.
# Target: Fructose-bisphosphate aldolase (Giardia intestinalis (strain ATCC 50803 / WB clone C6)) (UniProt A8B2U2)
# Assay: qHTS Assay for Inhibitors of Fructose-1,6-bisphosphate Aldolase from Giardia Lamblia; note: nearly all actives have a fitted effect of over 55% in size
# Details: purified Giardia FBPA; activity, negative = inhibition: at 59.6 µM (top of the series) unless noted
# Method in brief: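 Giardia FBPA (40 nM reagent) was preincubated 10 min at RT with compound (up to 57.5 uM final), then substrate plus GAPDH/TPI/NAD/arsenate coupling system with diaphorase/resazurin was added; resorufin fluorescence (525/598 nm) was read after 20 min.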
# % is set by controls: 0 for no effect and ±100 for the full control effect; potency is the fitted concentration of half-maximal effect; tags give direction and shape of the fitted curve.
# Sequence of UniProt A8B2U2 (A8B2U2 whole entry, looked up): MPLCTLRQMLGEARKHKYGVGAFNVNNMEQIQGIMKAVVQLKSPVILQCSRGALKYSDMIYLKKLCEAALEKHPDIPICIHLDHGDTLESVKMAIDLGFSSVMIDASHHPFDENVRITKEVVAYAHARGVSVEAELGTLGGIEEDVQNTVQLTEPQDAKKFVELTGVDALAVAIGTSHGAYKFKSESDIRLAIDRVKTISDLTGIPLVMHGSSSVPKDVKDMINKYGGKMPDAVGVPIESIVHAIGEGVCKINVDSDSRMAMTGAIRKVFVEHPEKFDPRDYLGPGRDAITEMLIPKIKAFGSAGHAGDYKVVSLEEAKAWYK
Compound,Potency,"activity, negative = inhibition"
COc1cc(/C=N/O)ccc1OCc1ccc([N+](=O)[O-])cc1,"inconclusive: 15.8 µM [inhibitor, single point]",–
Cc1cc(C)n2[nH]c(=O)c(N=Nc3ccc(S(N)(=O)=O)cc3)c2n1,"inconclusive: 0.63 µM [inhibitor, full curve]",–
CCOC(=O)c1c(NC(=O)CN(C)C)sc(C(=O)N(CC)CC)c1C,"inconclusive: 17.7 µM [inhibitor, partial curve]",–
O=C(Oc1ccc(/C=N/NC(=O)c2ccccc2O)cc1)c1ccccc1,–,inactive: -9.36%
Cc1cc(C)nc(N/N=C/c2ccco2)n1,"inconclusive: 19.9 µM [inhibitor, single point]",–
COC(=O)c1cccnc1-n1c(=O)c2cccnc2n(Cc2cccc([N+](=O)[O-])c2)c1=O,–,inactive: -2.13%
CCOc1ccc(C(=O)OC(C)CN2CCCCC2)cc1 (centres undefined),"inconclusive: 39.8 µM [inhibitor, single point]",–
O=C(Cn1[nH]c(=O)c2ccccc2c1=O)Nc1cccnc1,–,inactive: -0.634%
O=c1[nH]c2ccccc2n1CCC1CCCCC1,"inconclusive: 7.06 µM [activator, single point]",–
C=CCc1cccc(/C=N/NC(=O)CNc2cccc3ccccc23)c1O,"inconclusive: 4.46 µM [inhibitor, full curve]",–
Cc1ccc(C(=O)Nc2cc(Cl)ccc2N2CCCCC2)s1,–,inactive: -1.08%
O=C(Nc1ccccc1)C1=C(c2ccccc2)S(=O)(=O)CCS1(=O)=O,–,inactive: -5.04%
O=c1c(O)cccc2cc(O)c(O)c(O)c12,active: 14.1 µM,–
O=C(O)CCCNc1cc(N2CCN(C(=O)c3ccco3)CC2)c2noc3c2c1C(=O)c1ccccc1-3,active: 3.55 µM,–
CCOn1c(=O)c(-c2cccs2)[n+]([O-])c2ccccc21,–,inactive: 1.48%
CCc1ccc(-c2cc(C(=O)N/N=C/c3ccco3)[nH]n2)cc1,–,inactive: 0.843%
Cc1ccc(S(=O)(=O)NC(=O)NN2CC3CCCC3C2)cc1 (centres undefined),"inconclusive: 8.91 µM [inhibitor, partial curve]",–
Cc1oc2c(Cl)c(Cl)c(O)c(CN(C)C)c2c1C(=O)c1ccc(Cl)cc1,"inconclusive: 25.1 µM [inhibitor, single point]",–
COCCNC(=O)Nc1ccc2nc(-c3ccco3)c(-c3ccco3)nc2c1,"inconclusive: 3.54 µM [inhibitor, partial curve]",–
O=C(CNC(=O)c1ccc(Br)cc1)c1ccc(Br)cc1,–,inactive: 10.9%
C/C(CC(=O)N1CCN(C=O)CC1)=N\NC(=O)c1cc2ccccc2cc1O,"inconclusive: 19.9 µM [inhibitor, partial curve]",–
COc1cccc(NC(=S)NCc2cccnc2)c1,–,inactive: -0.842%
C=CCn1c(CC#N)nnc1N1CCOCC1,"inconclusive: 19.9 µM [inhibitor, single point]",–
O=C(/C=C/c1ccc(S(=O)(=O)NCc2ccco2)cc1)N1CCN(c2ccccc2)CC1,–,inactive: -3.66%
CCOc1ccc(CSC(=N)N)cc1Cl,–,inactive: -26.2%

Compound,Potency,"activity, negative = inhibition"
Cc1cccc2c3c([nH]c12)CCNC3,"inconclusive: 15.8 µM [inhibitor, partial curve]",–
CN(C)S(=O)(=O)c1ccc(NC(=S)NC(=O)c2ccc(Br)o2)cc1,active: 15.8 µM,–
C[n+]1c2ccccc2nc2ccc(NCCO)cc21,"inconclusive: 3.55 µM [inhibitor, full curve, poor fit]",–
C=CCN(CC=C)C(=S)Nc1ccc(OC)c(OC)c1,"inconclusive: 14.1 µM [inhibitor, partial curve]",–
CCOc1ccc(/C=C2\SC(=S)N(C)C2=O)cc1OC,–,inactive: -1.94%
CCOC(=O)c1sc(NC(=O)c2c(C)nn(Cc3ccccc3)c2C)cc1C,–,inactive: -13.9%
COc1ccc(NC2=CC(=S)NC(C)(C)C2)cc1,"inconclusive: 22.4 µM [inhibitor, partial curve]",–
CCc1cc(-c2n[nH]c(CCC(=O)O)c2-c2nc3ccccc3n2C)c(O)cc1O,"inconclusive: 14.1 µM [inhibitor, partial curve]",–
Cc1onc(-c2ccccc2)c1C(=O)NC(=S)NNC(=O)c1ccc(O)cc1O,"inconclusive: 7.06 µM [activator, single point]",–
COP(=S)(OC)SCN1C(=O)c2ccccc2C1=O,"inconclusive: 19.9 µM [inhibitor, single point]",–
O=C(O)c1ccc(COc2ccc3ccccc3c2)o1,"inconclusive: 17.7 µM [activator, partial curve]",–
Cn1c(=S)[nH]c2c(c1=O)C(C)(C)Cc1ccccc1-2,"inconclusive: 12.6 µM [inhibitor, partial curve]",–
Cc1nnc(NC(=O)CN2CC(C)OC(C)C2)s1 (centres undefined),active: 2.51 µM,–
Cc1nnc(NC(=O)c2nc(S(=O)(=O)Cc3ccccc3C)ncc2Cl)s1,"inconclusive: 25.1 µM [inhibitor, single point]",–
O=C1/C(=C\c2cc3c(cc2Cl)OCO3)N2CCC1CC2,"inconclusive: 3.54 µM [inhibitor, partial curve]",–
CC(=O)c1sc(C(C)(C)C)cc1NC(=O)c1ccccc1C(=O)O,"inconclusive: 17.7 µM [activator, single point]",–
Cc1ccc(CNc2cnccn2)cc1,–,inactive: 5.86%
CC(C)C(=O)N[C@@H]1CCCN1C(=O)/C=C\c1ccccc1,–,inactive: -0.718% [at 12.9 µM]
CCCOc1ccc(C(=O)NC(=S)NNC(=O)c2c(-c3ccccc3)noc2C)cc1,"inconclusive: 19.9 µM [activator, partial curve]",–
COC(=O)/C=C1/N/C(=N\c2nc(C)cc(C)n2)N(c2cccc(C)c2)C1=O,"inconclusive: 5 µM [inhibitor, partial curve]",–
Cc1cc(=O)[nH]c(NN)n1,"inconclusive: 31.5 µM [inhibitor, single point]",–
CC(C)C/C(O)=C/c1nc2cc(Cl)ccc2oc1=O,"inconclusive: 22.3 µM [inhibitor, single point]",–
CCOC(=O)c1c(-c2ccccc2)[nH]c2ccc(O)cc12,–,inactive: 1.09%
COc1ccc(-n2c(SCC(=O)Nc3cc(C(=O)O)ccc3C)nc3ccccc3c2=O)cc1Cl,–,inactive: 8.9%
